Measurements taken from the supplement of paper PMC8728848.
Some of the results follow.

How the values were obtained:
Assay in all cases: glycan array binding signal (z-score within array); higher = stronger binding
Details in all cases: glycan notation: IUPAC condensed, linker removed
Glc(a1-4)Glc = molecular target: Glc(a1-4)Glc
Procedure, shortened: (§1)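 Arrays were curated from the Consortium for Functional Glycomics database, 3228 in total, and kept only where the protein sequence was available. Binding is expressed as a within-array Z-score. This score was averaged across arrays of the same protein sequence at different concentrations or buffers and across linkers, and negative values can be read as non-binding.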

[1] = molecular target: Glc(a1-4)Glc(a1-4)Glc(a1-4)Glc
Procedure, shortened: as §1

Glc(a1-6)Glc(a1-6)Glc = molecular target: Glc(a1-6)Glc(a1-6)Glc
Procedure, shortened: as §1

[2] = molecular target: Glc(a1-6)Glc(a1-6)Glc(a1-6)Glc
Procedure, shortened: as §1

Glc(b1-4)Glc = molecular target: Glc(b1-4)Glc
Procedure, shortened: as §1

Glc(b1-6)Glc = molecular target: Glc(b1-6)Glc
Procedure, shortened: as §1

GlcA(b1-3)Gal = molecular target: GlcA(b1-3)Gal
Procedure, shortened: as §1

GlcA(b1-3)GlcNAc = molecular target: GlcA(b1-3)GlcNAc
Procedure, shortened: as §1

GlcA(b1-6)Gal = molecular target: GlcA(b1-6)Gal
Procedure, shortened: as §1

[3] = molecular target: GlcNAc(a1-3)Gal(b1-4)GlcNAc
Procedure, shortened: as §1

[4] = molecular target: GlcNAc(a1-4)Gal(b1-3)GlcNAc
Procedure, shortened: as §1

[5] = molecular target: GlcNAc(a1-4)Gal(b1-4)GalNAc
Procedure, shortened: as §1

[6] = molecular target: GlcNAc(a1-4)Gal(b1-4)GlcNAc
Procedure, shortened: as §1

[7] = molecular target: GlcNAc(a1-4)Gal(b1-4)GlcNAc(b1-3)Gal(b1-4)Glc
Procedure, shortened: as §1

[8] = molecular target: GlcNAc(a1-4)Gal(b1-4)GlcNAc(b1-3)Gal(b1-4)GlcNAc
Procedure, shortened: as §1

[9] = molecular target: GlcNAc(a1-4)Gal(b1-4)GlcNAc(b1-3)Gal(b1-4)GlcNAc(b1-3)Gal(b1-4)GlcNAc
Procedure, shortened: as §1

[10] = molecular target: GlcNAc(a1-4)Gal(b1-4)GlcNAc(b1-3)Gal(b1-4)[Fuc(a1-3)]GlcNAc(b1-3)Gal(b1-4)[Fuc(a1-3)]GlcNAc
Procedure, shortened: as §1

[11] = molecular target: GlcNAc(a1-6)Gal(b1-4)GlcNAc
Procedure, shortened: as §1

[12] = molecular target: GlcNAc(b1-2)Gal(b1-3)GalNAc
Procedure, shortened: as §1

[13] = molecular target: GlcNAc(b1-2)Man(a1-3)[GlcNAc(b1-2)Man(a1-6)]Man(b1-4)GlcNAc(b1-4)GlcNAc
Procedure, shortened: as §1

[14] = molecular target: GlcNAc(b1-2)Man(a1-3)[GlcNAc(b1-2)Man(a1-6)]Man(b1-4)GlcNAc(b1-4)[Fuc(a1-6)]GlcNAc
Procedure, shortened: as §1

[15] = molecular target: GlcNAc(b1-2)Man(a1-3)[GlcNAc(b1-4)][GlcNAc(b1-2)Man(a1-6)]Man(b1-4)GlcNAc(b1-4)GlcNAc
Procedure, shortened: as §1

[16] = molecular target: GlcNAc(b1-2)[GlcNAc(b1-4)]Man(a1-3)[GlcNAc(b1-2)Man(a1-6)]Man(b1-4)GlcNAc(b1-4)GlcNAc
Procedure, shortened: as §1

[17] = molecular target: GlcNAc(b1-2)[GlcNAc(b1-4)]Man(a1-3)[GlcNAc(b1-4)][GlcNAc(b1-2)Man(a1-6)]Man(b1-4)GlcNAc(b1-4)GlcNAc
Procedure, shortened: as §1

[18] = molecular target: GlcNAc(b1-2)[GlcNAc(b1-4)]Man(a1-3)[GlcNAc(b1-4)][GlcNAc(b1-2)[GlcNAc(b1-6)]Man(a1-6)]Man(b1-4)GlcNAc(b1-4)GlcNAc
Procedure, shortened: as §1

[19] = molecular target: GlcNAc(b1-2)[GlcNAc(b1-4)]Man(a1-3)[GlcNAc(b1-4)][GlcNAc(b1-2)[GlcNAc(b1-6)]Man(a1-6)]Man(b1-4)GlcNAc(b1-4)[Fuc(a1-6)]GlcNAc
Procedure, shortened: as §1

[20] = molecular target: GlcNAc(b1-2)[GlcNAc(b1-6)]Man(a1-6)[GlcNAc(b1-2)Man(a1-3)]Man(b1-4)GlcNAc(b1-4)GlcNAc
Procedure, shortened: as §1

[21] = molecular target: GlcNAc(b1-2)[GlcNAc(b1-6)]Man(a1-6)[GlcNAc(b1-2)Man(a1-3)]Man(b1-4)GlcNAc(b1-4)[Fuc(a1-6)]GlcNAc
Procedure, shortened: as §1

[22] = molecular target: GlcNAc(b1-2)[GlcNAc(b1-6)]Man(a1-6)[GlcNAc(b1-2)Man(a1-3)][GlcNAc(b1-4)]Man(b1-4)GlcNAc(b1-4)GlcNAc
Procedure, shortened: as §1

GlcNAc(b1-3)Gal = molecular target: GlcNAc(b1-3)Gal
Procedure, shortened: as §1

[23] = molecular target: GlcNAc(b1-3)Gal(b1-3)GalNAc
Procedure, shortened: as §1

GlcNAc(b1-3)Gal(b1-4)Glc = molecular target: GlcNAc(b1-3)Gal(b1-4)Glc
Procedure, shortened: as §1

[24] = molecular target: GlcNAc(b1-3)Gal(b1-4)GlcNAc
Procedure, shortened: as §1

[25] = molecular target: GlcNAc(b1-3)Gal(b1-4)GlcNAc(b1-3)Gal(b1-4)GlcNAc
Procedure, shortened: as §1

GlcNAc(b1-3)GalNAc = molecular target: GlcNAc(b1-3)GalNAc
Procedure, shortened: as §1

GlcNAc(b1-3)Man = molecular target: GlcNAc(b1-3)Man
Procedure, shortened: as §1

[26] = molecular target: GlcNAc(b1-3)[GlcNAc(b1-4)][GlcNAc(b1-6)]GlcNAc
Procedure, shortened: as §1

[27] = molecular target: GlcNAc(b1-3)[GlcNAc(b1-6)]Gal(b1-4)GlcNAc
Procedure, shortened: as §1

[28] = molecular target: GlcNAc(b1-3)[GlcNAc(b1-6)]GalNAc
Procedure, shortened: as §1

[29] = molecular target: GlcNAc(b1-4)Gal(b1-4)GlcNAc
Procedure, shortened: as §1

GlcNAc(b1-4)GlcNAc = molecular target: GlcNAc(b1-4)GlcNAc
Procedure, shortened: as §1

[30] = molecular target: GlcNAc(b1-4)GlcNAc(b1-4)GlcNAc
Procedure, shortened: as §1

[31] = molecular target: GlcNAc(b1-4)GlcNAc(b1-4)GlcNAc(b1-4)GlcNAc(b1-4)GlcNAc
Procedure, shortened: as §1

[32] = molecular target: GlcNAc(b1-4)GlcNAc(b1-4)GlcNAc(b1-4)GlcNAc(b1-4)GlcNAc(b1-4)GlcNAc
Procedure, shortened: as §1

[33] = molecular target: GlcNAc(b1-4)[GlcNAc(b1-6)]GalNAc
Procedure, shortened: as §1

[34] = molecular target: GlcNAc(b1-6)Gal(b1-4)GlcNAc
Procedure, shortened: as §1

GlcNAc(b1-6)GalNAc = molecular target: GlcNAc(b1-6)GalNAc
Procedure, shortened: as §1

GlcNAc3Prop(b1-4)GlcNAc = molecular target: GlcNAc3Prop(b1-4)GlcNAc
Procedure, shortened: as §1

[35] = molecular target: GlcNAc6S(b1-3)Gal(b1-4)GlcNAc
Procedure, shortened: as §1

Kdn(a2-3)Gal(b1-3)GalNAc = molecular target: Kdn(a2-3)Gal(b1-3)GalNAc
Procedure, shortened: as §1

Kdn(a2-3)Gal(b1-3)GlcNAc = molecular target: Kdn(a2-3)Gal(b1-3)GlcNAc
Procedure, shortened: as §1

Kdn(a2-3)Gal(b1-4)Glc = molecular target: Kdn(a2-3)Gal(b1-4)Glc
Procedure, shortened: as §1

Kdn(a2-3)Gal(b1-4)GlcNAc = molecular target: Kdn(a2-3)Gal(b1-4)GlcNAc
Procedure, shortened: as §1

[36] = molecular target: Kdn(a2-3)Gal(b1-4)[Fuc(a1-3)]GlcNAc
Procedure, shortened: as §1

Kdn(a2-6)Gal(b1-4)GlcNAc = molecular target: Kdn(a2-6)Gal(b1-4)GlcNAc
Procedure, shortened: as §1

[37] = molecular target: Man(a1-2)Man(a1-2)Man(a1-3)Man
Procedure, shortened: as §1

[38] = molecular target: Man(a1-2)Man(a1-2)Man(a1-6)[Man(a1-3)]Man
Procedure, shortened: as §1

Man(a1-2)Man(a1-3)Man = molecular target: Man(a1-2)Man(a1-3)Man
Procedure, shortened: as §1

[39] = molecular target: Man(a1-2)Man(a1-3)[Man(a1-2)Man(a1-6)]Man
Procedure, shortened: as §1

[40] = molecular target: Man(a1-2)Man(a1-3)[Man(a1-2)Man(a1-6)]Man(a1-6)[Man(a1-2)Man(a1-2)Man(a1-3)]Man
Procedure, shortened: as §1

B1: PRKCE (Homo sapiens), Q02156 (protein)
chain: MVVFNGLLKIKICEAVSLKPTAWSLRHAVGPRPQTFLLDPYIALNVDDSRIGQTATKQKTNSPAWHDEFVTDVCNGRKIELAVFHDAPIGYDDFVANCTIQFEELLQNGSRHFEDWIDLEPEGRVYVIIDLSGSSGEAPKDNEERVFRERMRPRKRQGAVRRRVHQVNGHKFMATYLRQPTYCSHCRDFIWGVIGKQGYQCQVCTCVVHKRCHELIITKCAGLKKQETPDQVGSQRFSVNMPHKFGIHNYKVPTFCDHCGSLLWGLLRQGLQCKVCKMNVHRRCETNVAPNCGVDARGIAKVLADLGVTPDKITNSGQRRKKLIAGAESPQPASGSSPSEEDRSKSAPTSPCDQEIKELENNIRKALSFDNRGEEHRAASSPDGQLMSPGENGEVRQGQAKRLGLDEFNFIKVLGKGSFGKVMLAELKGKDEVYAVKVLKKDVILQDDDVDCTMTEKRILALARKHPYLTQLYCCFQTKDRLFFVMEYVNGGDLMFQIQRSRKFDEPRSRFYAAEVTSALMFLHQHGVIYRDLKLDNILLDAEGHCKLADFGMCKEGILNGVTTTTFCGTPDYIAPEILQELEYGPSVDWWALGVLMYEMMAGQPPFEADNEDDLFESILHDDVLYPVWLSKEAVSILKAFMTKNPHKRLGCVASQNGEDAIKQHPFFKEIDWVLLEQKKIKPPFKPRIKTKRDVNNFDQDFTREEPVLTLVDEAIVKQINQEEFKGFSYFGEDLMP
Glc(a1-4)Glc
  glycan array binding signal (z-score): 0.944
[1]
  glycan array binding signal (z-score): 0.458
Glc(a1-6)Glc(a1-6)Glc
  glycan array binding signal (z-score): 0.238
[2]
  glycan array binding signal (z-score): -0.072
Glc(b1-4)Glc
  glycan array binding signal (z-score): 0.856
Glc(b1-6)Glc
  glycan array binding signal (z-score): 0.383
GlcA(b1-3)Gal
  glycan array binding signal (z-score): 0.378
GlcA(b1-3)GlcNAc
  glycan array binding signal (z-score): -0.247
GlcA(b1-6)Gal
  glycan array binding signal (z-score): 0.23
[3]
  glycan array binding signal (z-score): -0.387
[4]
  glycan array binding signal (z-score): -0.319
[5]
  glycan array binding signal (z-score): 1.01
[6]
  glycan array binding signal (z-score): -0.34
[7]
  glycan array binding signal (z-score): -0.252
[8]
  glycan array binding signal (z-score): -0.238
[9]
  glycan array binding signal (z-score): -0.23
[10]
  glycan array binding signal (z-score): 2.52
[11]
  glycan array binding signal (z-score): -0.384
[12]
  glycan array binding signal (z-score): -0.331
[13]
  glycan array binding signal (z-score): -0.323
[14]
  glycan array binding signal (z-score): -0.381
[15]
  glycan array binding signal (z-score): -0.401
[16]
  glycan array binding signal (z-score): -0.347
[17]
  glycan array binding signal (z-score): -0.347
[18]
  glycan array binding signal (z-score): -0.11
[19]
  glycan array binding signal (z-score): -0.16
[20]
  glycan array binding signal (z-score): -0.017
[21]
  glycan array binding signal (z-score): 0.031
[22]
  glycan array binding signal (z-score): -0.41
GlcNAc(b1-3)Gal
  glycan array binding signal (z-score): -0.275
[23]
  glycan array binding signal (z-score): -0.414
GlcNAc(b1-3)Gal(b1-4)Glc
  glycan array binding signal (z-score): -0.403
[24]
  glycan array binding signal (z-score): -0.348
[25]
  glycan array binding signal (z-score): -0.39
GlcNAc(b1-3)GalNAc
  glycan array binding signal (z-score): -0.409
GlcNAc(b1-3)Man
  glycan array binding signal (z-score): -0.38
[26]
  glycan array binding signal (z-score): 4.39
[27]
  glycan array binding signal (z-score): -0.413
[28]
  glycan array binding signal (z-score): -0.151
[29]
  glycan array binding signal (z-score): -0.411
GlcNAc(b1-4)GlcNAc
  glycan array binding signal (z-score): -0.322
[30]
  glycan array binding signal (z-score): -0.357
[31]
  glycan array binding signal (z-score): -0.405
[32]
  glycan array binding signal (z-score): -0.397
[33]
  glycan array binding signal (z-score): -0.393
[34]
  glycan array binding signal (z-score): -0.413
GlcNAc(b1-6)GalNAc
  glycan array binding signal (z-score): -0.382
GlcNAc3Prop(b1-4)GlcNAc
  glycan array binding signal (z-score): -0.229
[35]
  glycan array binding signal (z-score): -0.323
Kdn(a2-3)Gal(b1-3)GalNAc
  glycan array binding signal (z-score): -0.132
Kdn(a2-3)Gal(b1-3)GlcNAc
  glycan array binding signal (z-score): -0.38
Kdn(a2-3)Gal(b1-4)Glc
  glycan array binding signal (z-score): -0.371
Kdn(a2-3)Gal(b1-4)GlcNAc
  glycan array binding signal (z-score): -0.214
[36]
  glycan array binding signal (z-score): -0.29
Kdn(a2-6)Gal(b1-4)GlcNAc
  glycan array binding signal (z-score): -0.237
[37]
  glycan array binding signal (z-score): -0.308
[38]
  glycan array binding signal (z-score): -0.232
Man(a1-2)Man(a1-3)Man
  glycan array binding signal (z-score): -0.312
[39]
  glycan array binding signal (z-score): 0.542
[40]
  glycan array binding signal (z-score): 0.052
